PubChem BioAssay AID686971 (National Center for Advancing Translational Sciences (NCATS), 2013)
Out of some 360,000 compounds screened, about 7,500 (2.1%) were called active. Inconclusive means that the source gave no clear call. Such entries were picked first, then a sample of the others. Calls come from the whole dose curve; as a rule, active = well fitted cell-killing curve with a large enough effect; inconclusive = small, poorly fitted or top-dose-only effect, or effect the other way, or another doubt; inactive = no such curve, though single readings can be large or run the other way. Potencies of inconclusive entries are left out as doubtful fits.

Assay: qHTS for induction of synthetic lethality in tumor cells producing 2HG: qHTS for the HT-1080-IDH1KD cell line;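 for activity, negative = toxicity: 0% = DMSO wells and -100% = cell-free medium wells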
Conditions: HT-1080 IDH1 knockdown viability, ATP luminescence, 48 h; activity, negative = toxicity: at 46.1 µM (top of the series) unless noted
Outline: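 Viability of IDH1-knockdown HT-1080 fibrosarcoma cells was assessed by CellTiter-Glo after 48 h at 37 °C with titrated compound; concentration-effect curves were classified by fit quality and response size.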
Potency is the fitted concentration of half-maximal effect; tags give direction and shape of the fitted curve.

Compound	Potency	activity, negative = toxicity
O=C(Nc1ccc(Br)cc1)NC1CCCCCCC1	inconclusive [cytotoxic, partial curve]	
O=C(Nc1nnc(CC2=CCCCC2)s1)Nc1ccccc1F	active: 32.6 µM	
CN(c1ccccc1)S(=O)(=O)c1ccc(NC(=O)c2nc(S(C)(=O)=O)ncc2Cl)cc1	active: 11.6 µM	
Cc1nc2nc(C)n(CCN3CCOCC3)c(=O)c2c(-c2cccc([N+](=O)[O-])c2)c1C(=O)CCCCCCCCCCN1CCC(c2ccccc2)(c2ccccc2)CC1	active: 20.6 µM	
CCN1CCN(CCNC(=O)c2ccc3c(c2)N(Cc2ccc(F)cc2)C(=O)c2ccccc2S3=O)CC1 (stereo unspecified)	inconclusive [cytotoxic, single point]	
O=C(c1ccco1)c1nnn(Cc2ccccc2)c1-c1ccccc1		inconclusive: -31.5% [cytotoxic]
O=C(CC1SC(N2CCCC2)=NC1=O)Nc1ccc(C(=O)NCc2ccccc2F)cc1 (stereo unspecified)	inactive	
O=[N+]([O-])c1cc(S(=O)(=O)Nc2ccccc2)ccc1N1CCN(c2ccccc2)CC1	inconclusive [cytotoxic, single point]	
CC1(C(=O)Nc2ccc(Cl)c(C(F)(F)F)c2)Cc2c(-c3ccc4c(c3)OCO4)ccnc2O1 (stereo unspecified)	inconclusive [cytotoxic, single point]	
Cc1ccccc1OCC(O)Cn1c2ccccc2c2ccccc21 (stereo unspecified)	inconclusive [cytotoxic, partial curve, poor fit]	
Cn1cc(CN2CCC(C(=O)NC(c3ccc(F)cc3)c3ccc4ccccc4n3)CC2)c2ccccc21 (stereo unspecified)	active: 16.4 µM	
Cc1ccc(Nc2nc(NCc3ccco3)c3ccccc3n2)cc1	active: 23.1 µM	
CN1CCN(C(=S)c2cn(Cc3ccc(Br)cc3)c3ccccc23)CC1	inconclusive [cytotoxic, single point]	
OCCC1CN(Cc2nc(-c3ccccc3)cs2)CCN1Cc1ccc(F)cc1 (stereo unspecified)	inactive	
CN=c1scc(-c2ccc([N+](=O)[O-])cc2)n1/N=C/c1ccco1	inconclusive [rising, partial curve]	
N=c1c2ccccc2nc2n1CCCCCCCCCCC2	active: 23.1 µM	
COc1cc2nc(NCCCN3CCN(C)CC3)n3nc(-c4ccccc4)nc3c2cc1OC	inconclusive [cytotoxic, single point]	
CC1(C)Cc2c(sc(NC(=O)c3ccc(C(=O)c4ccccc4)cc3)c2C(N)=O)C(C)(C)N1	active: 9.2 µM	
CCOC(=O)[C@H]1[C@H]2COc3ccc(Br)cc3[C@@H]2N2C(=O)CN(Cc3ccc(F)cc3)C(=O)[C@@]12C	inactive	
O=C(Nc1ccc(Cl)cc1)Nc1ccccc1NS(=O)(=O)c1cccs1	inconclusive [cytotoxic, single point]	
CCN(CC)C(=O)c1cccc(-c2csc(C(O)c3ccc(F)c(OC)c3)n2)c1 (stereo unspecified)	inconclusive [cytotoxic, partial curve, poor fit]	
CC(C)(C)c1ccc(-c2nc(C#N)c(NCCCn3ccnc3)o2)cc1	active: 23.1 µM	
CCOC(=O)C1=NOC2(C1)C(=O)Nc1ccc(OC(F)(F)F)cc12 (stereo unspecified)	inconclusive [cytotoxic, single point]	

Compound	Potency	activity, negative = toxicity
Cc1cc(NC(=O)CCN2CCN(C/C=C/c3ccccc3)CC2)ccc1Br	active: 23.1 µM	
Cc1ccccc1COC(=O)c1cc([N+](=O)[O-])ccc1N1CCOCC1	inconclusive [cytotoxic, single point]	
Cc1ccc(OC(C)C(=O)N/N=C/c2ccccn2)cc1 (stereo unspecified)	inconclusive [cytotoxic, single point]	
COc1cc(/C=N/NC(=O)CCn2cnc(-c3ccccc3)c2-c2ccccc2)ccc1O	inconclusive [cytotoxic, single point]	
Cc1nn(Cc2ccc(Cl)cc2Cl)c(C)c1NC(=O)NC12CC3CC(CC(C3)C1)C2	active: 18.4 µM	
Cc1ccccc1-c1noc(CNC(=O)c2ccco2)n1	inactive	
O=C(NNC(=O)c1ccc(Br)s1)c1cccc(Cl)c1	inactive	
O=C(O)C1C2CCC(O2)C1C(=O)Nc1ccc(Br)cc1F (stereo unspecified)	inactive	
COC(=O)c1[nH]c2ccc(F)cc2c1NS(=O)(=O)c1ccc(OC)cc1	inconclusive [cytotoxic, full curve]	
COC(=O)c1cc(S(=O)(=O)N2CCOCC2)ccc1Sc1ccccc1N	inconclusive [cytotoxic, single point]	
CNC(=O)/C(C#N)=C/c1c(N2CC(C)OC(C)C2)nc2ccccn2c1=O (stereo unspecified)	inactive	
O=C(CSc1nnc(-c2ccco2)n1CC1CCCO1)c1ccc(F)cc1 (stereo unspecified)	inconclusive [cytotoxic, single point]	
O=C(Nc1cccc(Cl)c1)Nc1ccc2c(c1)OCO2	inconclusive [cytotoxic, single point]	
CCOc1ccc(NC(=O)CCCN2C(=S)NC(C)(C)CC2C)cc1 (stereo unspecified)	inactive	
CCc1cc2c(COC(=O)CCNS(=O)(=O)c3cccc(C(F)(F)F)c3)cc(=O)oc2cc1O	inactive	
C#CCOc1ccc(/C=C2\SC(=S)N(Cc3cccnc3)C2=O)cc1	inconclusive [cytotoxic, single point]	
CC1(c2nnnn2C2CCCCC2)CCC(=O)N1Cc1ccc2c(c1)OCO2 (stereo unspecified)	inactive	
O=C(NC(=S)N1CCN(Cc2ccccc2)CC1)c1ccco1	inactive	
CN(CCCC1CCCC1)C(=O)CC1C(=O)NCCN1Cc1cccc(F)c1F (stereo unspecified)	inactive	
Cc1cc(NC(=O)NC(=O)c2ccccc2NC(=O)CN(C)C)ccc1Oc1ncc(Br)cn1	inconclusive [cytotoxic, partial curve]	
Cn1c(SCc2cccc(F)c2)nnc1-c1cnccn1	inconclusive [rising, partial curve, poor fit]	
OC1(c2ccc(F)cc2)CCN(Cc2ccccc2)C1 (stereo unspecified)	inconclusive [cytotoxic, single point]	
CC1=Nc2cc(C(=O)NCCN3CCOCC3)ccc2Sc2c(C)ccc(C)c21	inconclusive [cytotoxic, single point]	
